A collection of fitness landscapes (doi:10.1126/science.1257360)
The list shows a part of the results.

B1: PhoQ; a variant is named by its letters at X, in order, P23837 (parent)
chain: MKKLLRLFFPLSLRVRFLLATAAVVLVLSLAYGMVALIGYSVSFDKTTFRLLRGESNLFYTLAKWENNKLHVELPENIDKQSPTMTLIYDENGQLLWAQRDVPWLMKMIQPDWLKSNGFHEIEADVNDTSLLLSGDHSIQQQLQEVREDDDDAEMTHSVAVNVYPATSRMPKLTIVVVDTIPVELKSSYMVWSWFIYVLSANLLLVIPLLWVAAWWSLRPIEALAKEVRELEEHNRELLNPATTRELTSLVRNLNRLLKSERERYDKYRTTLTDLTHSLKTPLXXLQXXLRSLRSEKMSVSDAEPVMLEQISRISQQIGYYLHRASMRGGTLLSRELHPVAPLLDNLTSALNKVYQRKGVNISLDISPEISFVGEQNDFVEVMGNVLDNACKYCLEFVEISARQTDEHLYIVVEDDGPGIPLSKREVIFDRGQRVDTLRPGQGVGLAVAREITEQYEGKIVAGESMLGGARMEVIFGRQHSAPKDE

Variants of: B1
Test: enrichment ratio after two sorts for PhoP signalling (ratio (wild type AVST 3.29)); higher = more functional
Conditions: with PhoP (E. coli)

| Variant | enrichment ratio |
| --- | --- |
| MPMH | ≤ 0.25 |
| WAKM | ≤ 0.25 |
| YNCY | ≤ 0.25 |
| GGPR | ≤ 0.25 |
| LGQK | ≤ 0.25 |
| TDWR | ≤ 0.25 |
| SFMA | 3.47 |
| WIRG | ≤ 0.25 |
| MQEF | ≤ 0.25 |
| AVGN | ≤ 0.25 |
| TVQV | 12.7 |
| LVDM | ≤ 0.25 |
| IFDY | ≤ 0.25 |
| EIER | ≤ 0.25 |
| PTEP | ≤ 0.25 |
| WHAS | ≤ 0.25 |
| NAII | ≤ 0.25 |
| QTCC | ≤ 0.25 |
| QHNK | ≤ 0.25 |
| PCYN | ≤ 0.25 |
| AKLN | 14 |
| LGFV | 9.51 |
| RNIN | ≤ 0.25 |
| RINR | ≤ 0.25 |

| Variant | enrichment ratio |
| --- | --- |
| QHKR | ≤ 0.25 |
| IVQS | ≤ 0.25 |
| WVVI | ≤ 0.25 |
| SIHE | ≤ 0.25 |
| GAKE | ≤ 0.25 |
| FWGE | ≤ 0.25 |
| PMGA | ≤ 0.25 |
| FNPK | ≤ 0.25 |
| YSWQ | ≤ 0.25 |
| FGPD | 0.564 |
| IRYK | ≤ 0.25 |
| RLHY | ≤ 0.25 |
| FRTW | ≤ 0.25 |
| TIND | 2.17 |
| KTLY | ≤ 0.25 |
| NRYQ | ≤ 0.25 |
| VEDC | ≤ 0.25 |
| GQNW | ≤ 0.25 |
| MIFF | 1.81 |
| TPQT | ≤ 0.25 |
| RFWA | ≤ 0.25 |
| MCHP | ≤ 0.25 |
| TDPS | ≤ 0.25 |
| RICD | ≤ 0.25 |

| Variant | enrichment ratio |
| --- | --- |
| EEVN | ≤ 0.25 |
| ASYN | ≤ 0.25 |
| YEEQ | ≤ 0.25 |
| QILC | ≤ 0.25 |
| PGYD | ≤ 0.25 |
| WDVR | ≤ 0.25 |
| YEQG | 0.393 |
| LERC | ≤ 0.25 |
| PWII | ≤ 0.25 |
| DYVY | ≤ 0.25 |
| ILTN | ≤ 0.25 |
| PPLW | ≤ 0.25 |
| LTEC | ≤ 0.25 |
| LTNC | ≤ 0.25 |
| WQAG | ≤ 0.25 |
| GCNG | ≤ 0.25 |
| CFPT | ≤ 0.25 |
| PVME | ≤ 0.25 |
| AEAC | 43.5 |
| VDDD | ≤ 0.25 |
| KEAV | ≤ 0.25 |
| WPCP | ≤ 0.25 |
| PPSG | ≤ 0.25 |
| WMWH | ≤ 0.25 |

| Variant | enrichment ratio |
| --- | --- |
| GTGF | 1.67 |
| LDFI | ≤ 0.25 |
| ESIT | ≤ 0.25 |
| KPEC | ≤ 0.25 |
| GVRD | ≤ 0.25 |
| INAG | 1.48 |
| GMGN | 2.73 |
| KMCN | ≤ 0.25 |
| DCRP | ≤ 0.25 |
| SLGN | ≤ 0.25 |
| RTQM | ≤ 0.25 |
| VMNI | ≤ 0.25 |
| RIPE | ≤ 0.25 |
| WTIR | ≤ 0.25 |
| SALP | ≤ 0.25 |
| YCNL | ≤ 0.25 |
| CRIH | ≤ 0.25 |
| CLTI | ≤ 0.25 |
| SQKN | ≤ 0.25 |
| DMAR | ≤ 0.25 |
| EPID | ≤ 0.25 |
| LAAV | ≤ 0.25 |
| EGNY | ≤ 0.25 |
| MYAN | ≤ 0.25 |

| Variant | enrichment ratio |
| --- | --- |
| IAKY | ≤ 0.25 |
| KDPC | ≤ 0.25 |
| KTCH | ≤ 0.25 |
| GGAL | 4.27 |
| RPYF | ≤ 0.25 |
| RMQI | ≤ 0.25 |
| YEVC | ≤ 0.25 |
| LQNV | ≤ 0.25 |
| AQCH | 32.7 |
| AFSK | ≤ 0.25 |
| DTEA | ≤ 0.25 |
| PYQC | ≤ 0.25 |
| PNHF | ≤ 0.25 |
| FSEM | ≤ 0.25 |
| NGHS | ≤ 0.25 |
| HDCH | ≤ 0.25 |
| SVIC | 0.439 |
| SLEY | ≤ 0.25 |
| RPPA | ≤ 0.25 |
| AQPR | ≤ 0.25 |
| DSQI | ≤ 0.25 |
| QHIG | ≤ 0.25 |
| RHYI | ≤ 0.25 |
| HLCS | ≤ 0.25 |

| Variant | enrichment ratio |
| --- | --- |
| PQMV | ≤ 0.25 |
| VFVS | ≤ 0.25 |
| MHYW | ≤ 0.25 |
| LKYH | ≤ 0.25 |
| AFWN | ≤ 0.25 |
| NGMP | ≤ 0.25 |
| WYDY | ≤ 0.25 |
| PVHC | ≤ 0.25 |
| AKGT | ≤ 0.25 |
| YIAM | 0.253 |
| HQTG | ≤ 0.25 |
| RSMH | ≤ 0.25 |
| RRQV | ≤ 0.25 |
| NLSH | ≤ 0.25 |
| KFWY | ≤ 0.25 |
| HGKF | ≤ 0.25 |
| LGWW | ≤ 0.25 |
| THDF | 11.6 |
| YHYM | ≤ 0.25 |
| VNTY | ≤ 0.25 |
| YFVN | ≤ 0.25 |
| ADGA | ≤ 0.25 |
| QNEL | ≤ 0.25 |
| KFRG | ≤ 0.25 |

| Variant | enrichment ratio |
| --- | --- |
| FACR | ≤ 0.25 |
| DYIA | ≤ 0.25 |
| IFQD | ≤ 0.25 |
| ATAY | 0.49 |
| MIRG | ≤ 0.25 |
| YNQR | ≤ 0.25 |
| FESK | ≤ 0.25 |
| NVSR | ≤ 0.25 |
| IQID | ≤ 0.25 |
| HYIR | ≤ 0.25 |
| TFDF | ≤ 0.25 |
| QMLP | ≤ 0.25 |
| QLDQ | ≤ 0.25 |
| RCFY | ≤ 0.25 |
| FHMR | ≤ 0.25 |
| NTKN | ≤ 0.25 |
| GCRV | ≤ 0.25 |
| KYRR | ≤ 0.25 |
| AQYR | ≤ 0.25 |
| FTWC | ≤ 0.25 |
| KSNL | ≤ 0.25 |
| MVCH | 3.47 |
| RMRL | ≤ 0.25 |
| HTDC | ≤ 0.25 |

| Variant | enrichment ratio |
| --- | --- |
| SYCI | 0.48 |
| ESQN | ≤ 0.25 |
| EMDG | ≤ 0.25 |
| SPLW | ≤ 0.25 |
| TSLP | ≤ 0.25 |
| FTVA | ≤ 0.25 |
| QSIN | ≤ 0.25 |
| VRGP | ≤ 0.25 |
| LGAW | ≤ 0.25 |
| GRID | ≤ 0.25 |
| KFTP | ≤ 0.25 |
| DVTT | ≤ 0.25 |
| LCRY | ≤ 0.25 |
| MRAD | ≤ 0.25 |
| ITHP | ≤ 0.25 |
| NRGD | ≤ 0.25 |
| PDQW | ≤ 0.25 |
| KCVL | ≤ 0.25 |
| MPVF | ≤ 0.25 |
| VLIL | 0.326 |
| QAEH | ≤ 0.25 |
| NWVN | ≤ 0.25 |
| FHNR | ≤ 0.25 |
| NTRH | ≤ 0.25 |

| Variant | enrichment ratio |
| --- | --- |
| LKAN | ≤ 0.25 |
| PDKT | ≤ 0.25 |
| INRY | ≤ 0.25 |
| SYSL | ≤ 0.25 |
| PPYT | ≤ 0.25 |
| QGMH | ≤ 0.25 |
| YGGA | ≤ 0.25 |
| HFKG | ≤ 0.25 |
| RLKG | ≤ 0.25 |
| LLWK | ≤ 0.25 |
| LTLD | ≤ 0.25 |
| YQVN | ≤ 0.25 |
| VHIH | ≤ 0.25 |
| YQHI | ≤ 0.25 |
| YPSP | ≤ 0.25 |
| IGIK | ≤ 0.25 |
| EFHW | ≤ 0.25 |
| YRKT | ≤ 0.25 |
| WNRH | ≤ 0.25 |
| AYLY | ≤ 0.25 |
| RNQV | ≤ 0.25 |
| LHLF | ≤ 0.25 |
| LLPQ | ≤ 0.25 |
| IYTK | ≤ 0.25 |

| Variant | enrichment ratio |
| --- | --- |
| IPDC | ≤ 0.25 |
| ESSI | 1.14 |
| QPMA | ≤ 0.25 |
| NHRY | ≤ 0.25 |
| PMQD | ≤ 0.25 |
| SNWL | ≤ 0.25 |
| IFYM | ≤ 0.25 |
| DYGV | ≤ 0.25 |
| PCIN | ≤ 0.25 |
| LAFI | 3.17 |
| QPFA | ≤ 0.25 |
| VLAQ | ≤ 0.25 |
| WEIP | ≤ 0.25 |
| LYYW | ≤ 0.25 |
| FTNW | ≤ 0.25 |
| ITSD | ≤ 0.25 |
| IMYV | ≤ 0.25 |
| QSDQ | 2.13 |
| NKRG | ≤ 0.25 |
| QQAY | ≤ 0.25 |
| PMYV | ≤ 0.25 |
| WVEK | ≤ 0.25 |
| GCCW | ≤ 0.25 |
| MDHE | ≤ 0.25 |

| Variant | enrichment ratio |
| --- | --- |
| SFDT | ≤ 0.25 |
| VNFA | ≤ 0.25 |
| PYDP | ≤ 0.25 |
| EDAS | ≤ 0.25 |
| NMTH | ≤ 0.25 |
| LGDS | ≤ 0.25 |
| WYHE | ≤ 0.25 |
| LESD | ≤ 0.25 |
| WYWY | ≤ 0.25 |
| NSPP | 1.17 |
| EAQF | ≤ 0.25 |
| AMMN | 1.37 |
| GGYG | ≤ 0.25 |
| QEIA | ≤ 0.25 |
| YDSN | ≤ 0.25 |
| DIFE | ≤ 0.25 |
| INGG | ≤ 0.25 |
| LIHG | ≤ 0.25 |
| MTCM | 12.2 |
| ERKH | ≤ 0.25 |
| VQKV | ≤ 0.25 |
| WGPG | ≤ 0.25 |
| RRST | ≤ 0.25 |
| DHRN | ≤ 0.25 |

| Variant | enrichment ratio |
| --- | --- |
| PWMG | ≤ 0.25 |
| DMPF | ≤ 0.25 |
| VGTL | ≤ 0.25 |
| MTKD | ≤ 0.25 |
| IFQL | ≤ 0.25 |
| NSMC | ≤ 0.25 |
| PDVY | ≤ 0.25 |
| ANAV | 14.3 |
| HCGL | ≤ 0.25 |
| QAPC | ≤ 0.25 |
| RRQA | ≤ 0.25 |
| TKDS | ≤ 0.25 |
| MMYM | ≤ 0.25 |
| RRAR | ≤ 0.25 |
| KYAH | ≤ 0.25 |
| NIYS | ≤ 0.25 |
| EDLE | ≤ 0.25 |
| ASNP | ≤ 0.25 |
| HTRQ | ≤ 0.25 |
| PDYW | ≤ 0.25 |
| KCPE | ≤ 0.25 |
| GGSP | ≤ 0.25 |
| YPIN | ≤ 0.25 |
| MTNI | ≤ 0.25 |

| Variant | enrichment ratio |
| --- | --- |
| YMTY | ≤ 0.25 |
| WCNI | ≤ 0.25 |
| LSVL | ≤ 0.25 |
| DLPF | ≤ 0.25 |
| PNLM | ≤ 0.25 |
| ENES | ≤ 0.25 |
| GNIW | ≤ 0.25 |
| FHNK | 5.86 |
| RGGF | ≤ 0.25 |
| ILKV | ≤ 0.25 |
| LRSE | ≤ 0.25 |
| LRGM | ≤ 0.25 |
| VGWL | 0.787 |
| VMTG | ≤ 0.25 |
| PLKL | ≤ 0.25 |
| LVKA | ≤ 0.25 |
| KHYM | ≤ 0.25 |
| HDHS | ≤ 0.25 |
